Here are results for 41 variants from the RNAGym collection of RNA variant scans (doi:10.7554/elife.90254).

Sequences and labels used below:
B1: OR4K15 (parent)
chain: GUUAACGGUCAUAGGCCAUGGAAACUAGGAGCACCAUUUCGCUGCCAGUGAAGAAAUGAACAAAGAAAAUCUGGGCCAGGCAGGCAUCAAAAGAAAUAGUCUUGCGCUCAACCAGAAAGUCUGUAAUCAUUUUAAGGGUA

Read counts are not given, so values of variants with three or more changes are uncertain.

The variants in the data set derive from B1. Put plainly: self-cleavage, relative activity (ratio to wild type); higher = more cleavage; in vitro, sequencing; the parent is a self-cleaving ribozyme.
Take GUUAACGGUCAUAGGCCAUGGAAACUAGGAGCACCAUUUCGCUGCCAGCGAUGAAAUGAACAAAGAAAAUCUGGGCCAGGCAGGCAUCAAAAGAAGUAGUCAUGCGCUCAACCAGAAAGUCUGUAAUCAUUUUAAGGGUA: the self-cleavage was determined as 1.33.
Turning to GUUAACGGUCAUAGGCCAUGGAAACUAGGAGCACCAUUUCGCUGCCAGAGAAGAAAUGAACAAAGAAAAUCUGGGCCAGGCAGGCAUCAGAUGAAAUAGUCUUGCGCUCAACCAGAAAGUCUGUAAUCAUUUUAAGGGUA, the self-cleavage is 0.89.
As for GUUAACGGUCAUAGGCCAUGGAAACUAGGAGCACCAUUUCGCUGCCAGAGAAGAAAUGAACAAAGAAAAUCUGGGCCAGGCAGGCAUCAAAAGAAAUAGUCUUGCGCCCAACCUGAAAGUCUGUAAUCAUUUUAAGGGUA, the figure is 0.02.
Turning to GUUAACGGUCAUAGGCCAUGGAAACUAGGAGCACCAUUUCGCUGCCAAUGAAGAAAUGAACAAAGAGAAUCUGGGCCAGGCAGGCAUCAAAAGAAAUAGUCUUGCGCUCAACCAGAAAGUCCGUAAUCAUUUUAAGGGUA, the self-cleavage was determined as 0.54.
As to GUUAACGGUCAUAGGCCAUGGAAACUAGGAGCACCAUUUCGCUGCCAGAGAAGAAAUGAACAAAGAAAAUCUGGGCCAGGCAGGCACCAAAAGAAAUAGUCUUGCGCUCAACCAGGAAGUCUGUAAUCAUUUUAAGGGUA, the self-cleavage worked out at 0.67.
Take GUUAACGGUCAUAGGCCAUGGAAACUAGGAGCACCAUUUCGCUGCCAGAGAAGUAAUGGACAAAGAAAUUCUGGGCCAGGCAGGCAUCAAAAGAAAUGGUCUUGCGCUCAACCAGAAAGUCUGUAACCAUUUUAAGGGUA: the self-cleavage was determined as 0.49.
GUUAACGGUCAUAGGCCAUGGAAACUAGGAGCACCAUUUCGCUGCCAGAGAAGAAAUGAACAAAGAAAAUCUGGGCCAGGCAGGCAUCAAAAGAUGUAGUCUUGCGCUCAACCAGAAAGUCUGUAAUCAUUUUAAGGGUA: the self-cleavage worked out at 0.72.
On to GUUAACGGUCAUAGGCCAUGGAAACUAGGAGCACCAUUUCGCUGCCAGAGAAGAAAUGAACAGAGAAAAUCUGGGCCAGGCAGGCAUCAAAAGAAAUAGUCUUGCGCUCAACCAGAAAGUCUGUAAUCAUUUUAAGGGUG, for which the self-cleavage was 1.49.
Then GUUAACGGUCAUAGGCCAUGGAAACUAGGAGCACCAUUUCGCUGCCAGCGGAGAAAUGAACAAAGAAAAUCCGGGCCAGGCAGGCAUCAAAAGAAAUAGUCUUGCGCUCAACCAGGAAGUCUGUAAUCGUUUUAAGGGUA, with 0.01; and GUUAACGGUCAUAGGCCAUGGAAACUAGGAGCACCAUUUCGCUGCCAGAGAAGAAAAGUACAAAGAAAAUCUGGGCCAGGCAGGCUUCAAAAGAAAUAGUCUUGCGCUCAACCAGAAAGUCUGUAAUCAUUUUAAGGGUA, with 1.02; and GUUAACGGUCAUAGGCCAUGGAAACUAGGAGCACCAUUUCGCUGCCAUUGAAGGAAUGAACAAAGAAAAUCUGGGCCAGGCAGGCAUCAAAAGAAAUAGUCCUGCGCUCAACCAGAAAGUCUGUAAUCAUUUUAAGGGUA, with 2.14.
With GUUAACGGUCAUAGGCCAUGGAAACUAGGAGCACCAUUUCGCUGCCAGAGAAGAAAUGAACAAAGAAAAUCGGGGCCAGGCAGGCAUCAAUAGAAAUAGUCUUGCGCUCAACCAGAAAGUCUGUAAUCAUUUUAAGGGUA, the self-cleavage is 0.33.
As for GUUAACGGUCAUAGGCCAUGGAAACUAGGAGCACCAUUUCGCUGCCAGAGAAGAAAUGAACAGAGAGAAUCCGGGCCAGGCAGGCAUCAAAAGAAAUAGUCUUGCGCUCAACCAGAAAGUCUGUAAUCAUUUUAAGGGUA, the figure is 0.15; as for GUUAACGGUCAUAGGCCAUGGAAACUAGGAGCACCAUUUCGCUGCCAGAGAAGAAAUGAACAAAGAAGAUCUGGGCCAGGCAGGCACCAAAAGAAAUAGUCUUGCGCUCAACCAGAAAGUCUGUAAUCAUUUUAAGGGUA, 0.72.
GUUAACGGUCAUAGGCCAUGGAAACUAGGAGCACCAUUUCGCUGCCAGAGAAGAAAUGAACAAAGAAAAUCUGGGCCAGGCAGGCAUCAAAAGGACUAGUCUUGCGCUCAACCAGAAAGUCUGUAAUCAUUUUAAGGGUA: the self-cleavage is 0.35.
Consider GUUAACGGUCAUAGGCCAUGGAAACUAGGAGCACCAUUUCGCUGCCAAUGAAGAAAUGAAUAAAGAAAAUCUGGGCCAGGCAGGCAUCAAAAGUAAUAGUCUUGCGCUCAACCAGAAAGUCUGUAAUCAUUUUAAGGGUU, for which the self-cleavage came out at 1.98.
As for GUUAACGGUCAUAGGCCAUGGAAACUAGGAGCACCAUUUCGCUGCCAGAGAGGAAAUGAACAAAGAAAAUCUGGGCCUGGCAGGCAUCAAAAGAAAUAGUCUUGCGCUCAACCAGAAAGUCUGUAAUCAUUUUAAGGGUA, the figure is 0.23.
As to GUUAACGGUCAUAGGCCAUGGAAACUAGGAGCACCAUUUCGCUGCCAGAGAAGAAAUGAACAAAGAAAAUCUGGGCCAGGCAGGCAUCAAAAGAAAUGGUCUUGCGCUCAACCAGAAAAUCUGUAAUCAUUUUAAGGGUA, the self-cleavage came to 0.36.
With GUUAACGGUCAUAGGCCAUGGAAACUAGGAGCACCAUUUCGCUGCCAGCGAGGAAAUGAACAAAGAAAAUCUGGGCCAGGCAGGCAUCAAAAGAAUUAGUCUUGCGCUCAACCAGAAAGUCUGUAAUCAUUUCAAGGGUA, the self-cleavage came to 1.92.
As to GUUAACGGUCAUAGGCCAUGGAAACUAGGAGCACCAUUUCGCUGCCAGAGAAGAAAUGAACAAAGAAAACCUGGGCCAGGCAGGCAUCAAAAGAAAUAGUCUUGCGCACAACCAGAAAGUCUGUAAUCAUUUUAAGGGUA, the self-cleavage turned out to be 0.01.
GUUAACGGUCAUAGGCCAUGGAAACUAGGAGCACCAUUUCGCUGCCAGAGAAGAAAAGAACAAAGAAAAUCUGGGCCAGGCAGGCAUCAAAAGAAAUAGUCUUGCGCUCAACCAGAAGGUCUGUAAUCAUUUUAAGGGUA: the self-cleavage was 0.42.
GUUAACGGUCAUAGGCCAUGGAAACUAGGAGCACCAUUUCGCUGCCAGCGAAGGAAUGAACAAAGAAGAUCUGGGCCAGGCAGGCAUCAAAAGAAAUAGUCUUGCGCUCAACCAGAAAGUCUGUAAUCAUUUUAAGGGUA: the self-cleavage is 1.41.
Then GUUAACGGUCAUAGGCCAUGGAAACUAGGAGCACCAUUUCGCUGCCAGAGAAGAAAUGGACAAAGAAAAUCUGGGCCAGGCAGGCAUCAAAAGAAAUGGUCUCGCGCUCAACCAGAAAGUCUGUAAUCAUUUUAAGGGUA, with 0.05; and GUUAACGGUCAUAGGCCAUGGAAACUAGGAGCACCAUUUCGCUGCCAGAGAAGAGAUGAACAAAGAAAAUCUGGGCCAGGCAGGCAUCAAAAGAAAUAGCCUUGCGCUCAACCAGAAAGUCUGUAAUCAUUUUAAGGGUA, with 2.16.
With GUUAACGGUCAUAGGCCAUGGAAACUAGGAGCACCAUUUCGCUGCCAGAGAAGAAAUGAACAAAGAAAAUCCGGGCCAGGCAGGCAUCAAAAGAAAUAGUCUUGCGCUCAACCAGAAAGUCUGUGAUCAUUUCAAGGGUA, the self-cleavage is 0.1.
As for GUUAACGGUCAUAGGCCAUGGAAACUAGGAGCACCAUUUCGCUGCCUGUGAAGAAACGAACAAAGAAAAUCUGGGCCAGGCAGGCACCAAAAGAAAUAGUCUUGCGCUCAACCAGAAAGUCUGUAAUCGUCUUAAGGGUA, the self-cleavage turned out to be 0.25.
On to GUUAACGGUCAUAGGCCAUGGAAACUAGGAGCACCAUUUCGCUGCCAGCGCAGAAAUGAACAAAGGAAAUCUGGGCCAGGCAGGCAUCAAAAGAAAUAGACUUGCGCUCAACCAGAAAGUCUGUAAUCAUCUUAAGGGUA, for which the self-cleavage was found to be 0.07.
As to GUUAACGGUCAUAGGCCAUGGAAACUAGGAGCACCAUUUCGCUGCCAAUGAAGAAAUGAACAAAGAAAAUCUGGGCCAGGCAGGCAUCAAAAGAAAUAGUCUUGCGCUCAACCAGAACGUCUGUAAUCAUUUUUAGGGUG, the self-cleavage stood at 0.76.
With GUUAACGGUCAUAGGCCAUGGAAACUAGGAGCACCAUUUCGCUGCCAAUGAAGAAAUGAGCAAAGAAAAUCUGCGCCAGGCAGGCAUCAAAAGAAAUAGUCUUGCGCUCAACCAGAAAGUCUGUAAUCAUUUUAAGGGUA, the self-cleavage is 0.04.
As for GUUAACGGUCAUAGGCCAUGGAAACUAGGAGCACCAUUUCGCUGCCAUUGAAGAAAUGAACAAGGAAAAUCUGGGCCAGGCAGGCAUCAAAAGAAGUAGUCUUGCGCUCAACCAGAAAGUCUGUAAUCAUUUUAAGGGUA, the figure is 1.88.
For GUUAACGGUCAUAGGCCAUGGAAACUAGGAGCACCAUUUCGCUGCCAGAGAAGAAAUGAACAAAGAAAAUCUGGGCCAGGCAGGCAUCAAAAGAAAUAGUCUUGCGCUCAACCUGAAAGUCAGUAAUCAUUUUAAGGGUA, the self-cleavage was 0.
Take GUUAACGGUCAUAGGCCAUGGAAACUAGGAGCACCAUUUCGCUGCCAGAGAAGAAAUGAACAAAGAAAAUCUGGGCCAGGCAGGCAUCAAAAGAAAUAGUCUUGCGCUCAACCAGAAAGUCUGUAAUCAUUCUAAGGGUG: the self-cleavage was 1.09.
As for GUUAACGGUCAUAGGCCAUGGAAACUAGGAGCACCAUUUCGCUGCCUGUGAAGAAAUGAACAAAGAAAACCUGGGCCAGGCAGGCAUCAAAAGAAAUAGUCUUGCGCUCAACCAGAAAGUCUGUGAUCAUUUUAAGGGUA, the figure is 0.08; as for GUUAACGGUCAUAGGCCAUGGAAACUAGGAGCACCAUUUCGCUGCCAGCGAAGGAAUGGACAAAGAGAAUCUGGGCCAGGCAGGCAUCAAAAGAAAUAGUCUUGCGCUCAACCAGAAAGUCUGUAAUCAUUCUAAGGGUA, 1.45; as for GUUAACGGUCAUAGGCCAUGGAAACUAGGAGCACCAUUUCGCUGCCAAUGAAGCAAUGAACGAAGAAAAUCUGGGCCAGGCAGGCAUCAAAAGAAAUAGUCUUGCGCUCGACCAGAAAGUCUGUAUUCAUUUUAAGGGUA, 0.06.
Take GUUAACGGUCAUAGGCCAUGGAAACUAGGAGCACCAUUUCGCUGCCAGAGAAGAAGUGAGCAAAGAAAAUCUGGGCCAGGCAGGCAUCAAAAGAAAUAGUCCUGCGCUCAACCAGAAAGUCUGUAAUCAUUUUAAGGGUA: the self-cleavage stood at 1.23.
For GUUAACGGUCAUAGGCCAUGGAAACUAGGAGCACCAUUUCGCUGCCAAUGAAGAAAUGAACAAAGAAAAUCUGGGCCAGGCAGGCAUCAAAAGAAAUAGUUUCGCGCUCAACCAGAAAGUCUGUAAUCAUUUUAAGGGUA, the self-cleavage came out at 0.12.
Consider GUUAACGGUCAUAGGCCAUGGAAACUAGGAGCACCAUUUCGCUGCCAAUGAAGAAAUGAACAAAGAAAAUCUGGGCCAGGCAGGCGUCAAAAGAAAUAGUCUUGCGCUCAACCAGGAAGUCUGUAAUCAUUUUAAGGGUA, for which the self-cleavage was found to be 0.17.
As to GUUAACGGUCAUAGGCCAUGGAAACUAGGAGCACCAUUUCGCUGCCAGCGUAGAGAUGAACAAAGAAAAUCUGGGCCAGGCAGGCACUAAAAGAAAUAGUCUUGCGCUCAACCAGAAAGUCUGUAAUCAUUUUAAGGGUA, the self-cleavage worked out at 0.56.
As for GUUAACGGUCAUAGGCCAUGGAAACUAGGAGCACCAUUUCGCUGCCAGAGAAGAAAGGAACAAAGAAAAUCUGGGCCAGGCAGGCAUCAAAAGAAAUAGUCUUGCGCGCAACCAGAAAGUCUGUAAUCAUUUUAAGGGUA, the figure is 0.02; as for GUUAACGGUCAUAGGCCAUGGAAACUAGGAGCACCAUUUCGCUGCCAGAGAAGAAAUGAGCAAAGAAAAUCUGGGCCAGGCAGGCAUCAAAAGAAGUAGUCUUGCGCUCAACCAGAAGGUCUGUAAUCAUUUUAAGGGUA, 1.05.
